Data taken from the supplement of paper PMC9542798.

Columns and labels:
Assay in all cases: minimum inhibitory concentration
[1] = compound: CN[C@H](CC(C)C)C(=O)N[C@H]1C(=O)N[C@@H](CC(N)=O)C(=O)N[C@H]2C(=O)N[C@H]3C(=O)N[C@H](C(=O)N[C@H](C(=O)O)c4cc(O)cc(O)c4-c4cc3ccc4O)[C@H](O)c3ccc(c(Cl)c3)Oc3cc2cc(c3O[C@@H]2O[C@H](CO)[C@@H](O)[C@H](O)[C@H]2O[C@H]2C[C@](C)(N)[C@H](O)[C@H](C)O2)Oc2ccc(cc2Cl)[C@H]1O [Vancomycin]
Experimental: (§1)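 Broth microdilution MIC per ISO 10932 on precoated VetMIC Lact-1 plates (tylosin, vancomycin and ampicillin plates prepared manually) against lactic acid bacteria and bifidobacteria isolates. Plates were read visually after 48 h anaerobic incubation (bifidobacteria 72 h; enterococci and staphylococci 24 h aerobic) at species-specific temperatures of 30 or 37 °C. Values prefixed with < or > are outside the tested dilution range.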

[2] = compound: CN[C@@H]1[C@H](O[C@H]2[C@H](O[C@H]3[C@H](O)[C@@H](O)[C@H](N=C(N)N)[C@@H](O)[C@@H]3N=C(N)N)O[C@@H](C)[C@]2(O)C=O)O[C@@H](CO)[C@H](O)[C@H]1O [Streptomycin]
Experimental: as §1

[3] = compound: CC[C@H]1OC(=O)[C@H](C)[C@@H](O[C@H]2C[C@@](C)(OC)[C@@H](O)[C@H](C)O2)[C@H](C)[C@@H](O[C@@H]2O[C@H](C)C[C@H](N(C)C)[C@H]2O)[C@](C)(O)C[C@@H](C)C(=O)[C@H](C)[C@@H](O)[C@]1(C)O [Erythromycin]
Experimental: as §1

[4] = compound: CCC[C@@H]1C[C@@H](C(=O)N[C@@H]([C@H]2O[C@H](SC)[C@H](O)[C@@H](O)[C@H]2O)[C@H](C)Cl)N(C)C1 [Clindamycin]
Experimental: as §1

[5] = compound: NC[C@@H]1O[C@H](O[C@H]2[C@@H](O)[C@H](O[C@@H]3[C@@H](O)[C@H](N)C[C@H](N)[C@H]3O[C@H]3O[C@H](CN)[C@@H](O)[C@H](O)[C@H]3N)O[C@@H]2CO)[C@H](N)[C@@H](O)[C@@H]1O [Neomycin]
Experimental: as §1

[6] = compound: CN(C)[C@@H]1C(O)=C(C(N)=O)C(=O)[C@@]2(O)C(O)=C3C(=O)c4c(O)cccc4[C@@](C)(O)[C@H]3C[C@@H]12 [Tetracycline]
Experimental: as §1

[7] = compound: NC[C@H]1O[C@H](O[C@H]2[C@H](O)[C@@H](O[C@H]3O[C@H](CO)[C@@H](O)[C@H](N)[C@H]3O)[C@H](N)C[C@@H]2N)[C@H](O)[C@@H](O)[C@@H]1O [Kanamycin]
Experimental: as §1

[8] = compound: O=C(N[C@H](CO)[C@H](O)c1ccc([N+](=O)[O-])cc1)C(Cl)Cl [Chloramphenicol]
Experimental: as §1

[9] = compound: CNC(C)C1CCC(N)C(OC2C(N)CC(N)C(OC3OCC(C)(O)C(NC)C3O)C2O)O1 [Gentamicin]
Experimental: as §1

[10] = compound: CC1(C)S[C@@H]2[C@H](NC(=O)[C@H](N)c3ccccc3)C(=O)N2[C@H]1C(=O)O [Ampicillin]
Experimental: as §1

[11] = compound: CC[C@H]1OC(=O)C[C@@H](O)[C@H](C)[C@@H](O[C@@H]2O[C@H](C)[C@@H](O[C@H]3C[C@@](C)(O)[C@@H](O)[C@H](C)O3)[C@H](N(C)C)[C@H]2O)[C@@H](CC=O)C[C@@H](C)C(=O)/C=C/C(C)=C/[C@@H]1CO[C@@H]1O[C@H](C)[C@@H](O)[C@@H](OC)[C@H]1OC [Tylosin]
Experimental: as §1
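Further: isolates derived from commercial starter, protective, probiotic or feed-additive cultures, from fermented products, from human gut mucosa or feces, and from human milk or colostrum.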

Row | Test System | minimum inhibitory concentration [1] [µg/mL] | minimum inhibitory concentration [2] [µg/mL] | minimum inhibitory concentration [3] [µg/mL] | minimum inhibitory concentration [4] [µg/mL] | minimum inhibitory concentration [5] [µg/mL] | minimum inhibitory concentration [6] [µg/mL] | minimum inhibitory concentration [7] [µg/mL] | minimum inhibitory concentration [8] [µg/mL] | minimum inhibitory concentration [9] [µg/mL] | minimum inhibitory concentration [10] [µg/mL] | minimum inhibitory concentration [11] [µg/mL]
1 | Enterococcus faecalis IM1316 (strain group: non-starter strains) | 2 | 128 | 1 | 2 | 64 | 0.5 | 64 | 4 | 16 | 2 | 1
2 | Enterococcus faecium IM312 (strain group: probiotic strains) | 1 | 32 | 8 | 0.5 | 8 | 0.5 | 128 | 4 | 8 | 1 | 2
3 | Enterococcus durans IM807 (strain group: probiotic strains) | 1 | 128 | > 8 | > 16 | 32 | 0.5 | 1020 | 8 | 64 | 4 | 8
4 | Enterococcus durans IM1304 (strain group: non-starter strains) | 0.5 | 32 | 0.12 | 0.25 | 8 | 0.5 | 16 | 8 | 8 | 1 | 1
5 | Enterococcus faecalis IM1318 (strain group: non-starter strains) | 2 | 128 | 1 | > 16 | 128 | 1 | 128 | 8 | 64 | 2 | 1
6 | Staphylococcus carnosus IM1462 (strain group: protective cultures) | 0.5 | 4 | 0.5 | 0.5 | < 0.5 | 0.5 | < 2 | 4 | < 0.5 | 0.5 | 1
7 | Enterococcus durans IM1317 (strain group: non-starter strains) | 0.5 | 32 | 0.25 | 0.25 | 8 | 0.5 | 16 | 8 | 8 | 2 | 1
8 | Enterococcus faecium IM1309 (strain group: non-starter strains) | 1 | 64 | 2 | 0.5 | 8 | 0.5 | 128 | 4 | 16 | 0.25 | 1
9 | Enterococcus faecalis IM1311 (strain group: non-starter strains) | 1 | 128 | 2 | 2 | 128 | 0.5 | 128 | 8 | 32 | 1 | 2
10 | Enterococcus faecium IM314 (strain group: probiotic strains) | 1 | 64 | 8 | 4 | 16 | 0.25 | 512 | 4 | 16 | 2 | 4
11 | Staphylococcus carnosus IM1455 (strain group: starter cultures) | < 0.25 | 4 | 0.5 | 0.25 | < 0.5 | 0.5 | < 2 | 4 | < 0.5 | 0.5 | 0.5
12 | Enterococcus durans IM1303 (strain group: non-starter strains) | 0.5 | 32 | 0.12 | 0.25 | 4 | 0.5 | 16 | 8 | 4 | 1 | 1
13 | Staphylococcus carnosus IM1453 (strain group: starter cultures) | < 0.25 | 2 | 0.5 | 0.5 | < 0.5 | 0.5 | < 2 | 4 | < 0.5 | 0.5 | 0.5
14 | Enterococcus faecalis IM1310 (strain group: non-starter strains) | 1 | 128 | 2 | 2 | 64 | 0.5 | 128 | 8 | 64 | 1 | 1
15 | Staphylococcus carnosus IM1451 (strain group: starter cultures) | 0.5 | 4 | 0.25 | 0.25 | < 0.5 | 0.25 | < 2 | 4 | < 0.5 | 0.5 | 0.25
